The values below come from US20080090900A1, “ANTIBIOTIC BUSHRIN” (University of Karachi, priority 2006, published 2008).

For assay [1], the system named is MRSA methicillin resistant staphylococcus aureus. The assay is described as follows: microbe, parasite or virus in culture. The conditions noted are these: read-out: Sensitivity (width of inhibition zone).
Assay [2] has the same test system. The experiment in a line: microbe, parasite or virus in culture. The format is cell-based.

Values after ≈ are worked out from the molar mass of the structure shown.

As usually defined, the zone of inhibition is the extent of the growth-free halo in a diffusion test. Take `Cc1cc(O)c2c(c1)C=CC(C)(c1ccoc1)C2` (centres unmarked) [Compound 1, 7-(3-furyl)-3,7-dimethyl-7,8-dihydro-1-naphthalenol]: the zone of inhibition at 150 µg/disc in assay [1] was in the range of 18 to 30 mm. This compound also returned an MIC in assay [2] of 60 µg/mL (≈ 250 µM).
